In the antibiotic and cytotoxicity screens of Wong et al. (2023) one finds cytotoxicity call and growth inhibition call data, which are given here for 28 compounds.

Some of the results follow.

One test has as its system HSkMC. Briefly: cytotoxicity call (relative viability < 0.9). Conditions: 10 µM.
The next test relates to HepG2. Briefly: cytotoxicity call (relative viability < 0.9). Conditions: 10 µM.
The subject of the next test is S. aureus RN4220. Briefly: growth inhibition call (relative growth <= 0.2). The settings on record: 50 µM.

With `NC[C@H](c1ccco1)N1CCN(c2ccc(F)cc2)CC1`, the cytotoxicity call in the test with HSkMC and with HepG2 was “inactive” in each case. Moreover, the growth inhibition call with S. aureus RN4220 was “inactive”.
Turning to `Cc1noc(C)c1NC(=O)N(C)C[C@H]1Oc2c(NS(C)(=O)=O)cccc2C(=O)N([C@@H](C)CO)C[C@@H]1C`, the cytotoxicity call in the test with HSkMC and with HepG2 was “inactive” each time. Moreover, in the test with S. aureus RN4220, the growth inhibition call is “inactive”.
Consider `C[C@@H]1CN([C@@H](C)CO)C(=O)c2cc(NC(=O)Nc3ccc4c(c3)OCO4)ccc2O[C@@H](C)CCCCO[C@@H]1CN(C)Cc1ccc2c(c1)OCO2`, for which the cytotoxicity call with HSkMC and with HepG2 was “inactive” throughout. Besides, the growth inhibition call in the test on S. aureus RN4220 was “inactive”.
As to `Cc1ccc(S(=O)(=O)N2C[C@@H](O)COC[C@H]3O[C@H](CC(=O)NCc4ccc(C)c(C)c4)CC[C@@H]32)cc1`, the cytotoxicity call in the test on HSkMC and in the test with HepG2 was “inactive” each time. The growth inhibition call in the test with S. aureus RN4220 is “inactive”.
As for `C[C@@H]1CCCCO[C@H](CN(C)Cc2ccc(C(F)(F)F)cc2)[C@H](C)CN([C@@H](C)CO)C(=O)c2cc(NC(=O)Nc3ccccc3)ccc2O1`, the cytotoxicity call in the test with HSkMC is “inactive”. For the same compound, the cytotoxicity call with HepG2 is “active”. Besides, the growth inhibition call in the test on S. aureus RN4220 is “inactive”.
As to `COCCOC(=O)N1C(=O)[C@@]2(c3cc(C#Cc4ccc(OC)cc4)ccc31)[C@H](c1ccc(O)cc1)N1[C@H](c3ccccc3)[C@H](c3ccccc3)OC(=O)[C@H]1[C@@H]2C(=O)NC[C@H](O)c1ccccc1`, the cytotoxicity call in the test with HSkMC and in the test with HepG2 was “inactive” each time. The growth inhibition call with S. aureus RN4220 was “inactive”.
For `CN(C)CCCNC(=O)C[C@H]1C=C[C@@H](NS(=O)(=O)c2ccccc2)[C@@H](CO)O1`, the cytotoxicity call with HSkMC and with HepG2 was “inactive” throughout. Moreover, in the test with S. aureus RN4220, the growth inhibition call is “inactive”.
As for `COc1ccc(CNC(=O)N(C)C[C@H]2OCc3ccccc3-c3c(n(C)c4ccccc34)C(=O)N([C@H](C)CO)C[C@H]2C)cc1`, the cytotoxicity call in the test on HSkMC and in the test with HepG2 was “inactive” each time. Moreover, the growth inhibition call with S. aureus RN4220 was “inactive”.
Turning to `C[C@H]1CN([C@@H](C)CO)C(=O)c2cccc(NS(=O)(=O)c3ccccc3)c2O[C@H]1CN(C)S(=O)(=O)c1cn(C)cn1`, the cytotoxicity call in the test with HSkMC and in the test with HepG2 was “inactive” in each case. In the test with S. aureus RN4220, the growth inhibition call was “inactive”.
Turning to `Cc1noc(C)c1NC(=O)Nc1ccc2c(c1)CC(=O)N([C@@H](C)CO)C[C@H](C)[C@@H](CN(C)C(=O)Nc1cccc3ccccc13)O2`, the cytotoxicity call with HSkMC and in the test on HepG2 was “inactive” each time. Also, the growth inhibition call in the test on S. aureus RN4220 was “inactive”.
Consider `C[C@H]1CCCCO[C@H](CN(C)CC2CCCCC2)[C@@H](C)CN([C@@H](C)CO)C(=O)c2cc(NC(=O)Nc3ccc(F)cc3)ccc2O1`, for which, in the test with HSkMC, the cytotoxicity call is “inactive”. Also, in the test with HepG2, the cytotoxicity call was “active”. In addition, in the test on S. aureus RN4220, the growth inhibition call was “inactive”.
With `C[C@@H]1CN([C@H](C)CO)C(=O)Cc2cc(NC(=O)Nc3ccccc3)ccc2O[C@H]1CN(C)Cc1ccc(Oc2ccccc2)cc1`, in the test on HSkMC, the cytotoxicity call is “inactive”. In addition, in the test with HepG2, the cytotoxicity call is “active”. In the test with S. aureus RN4220, the growth inhibition call was “inactive”.
As for `CN(c1c[nH]c(=O)[nH]c1=O)C1CCCCC1`, the cytotoxicity call in the test with HSkMC and in the test with HepG2 was “inactive” in each case. Also, in the test on S. aureus RN4220, the growth inhibition call was “inactive”.
Turning to `Cc1ccc(S(=O)(=O)N(C)C[C@@H]2Oc3ccc(NC(=O)Cn4cnnn4)cc3C(=O)N([C@H](C)CO)C[C@H]2C)cc1`, the cytotoxicity call in the test on HSkMC and in the test with HepG2 was “inactive” each time. Besides, the growth inhibition call in the test on S. aureus RN4220 was “inactive”.
In the case of `CO[C@@H]1CN(C)C(=O)c2cc(NS(C)(=O)=O)ccc2OC[C@H](C)N(C(=O)C2CCCCC2)C[C@H]1C`, the cytotoxicity call in the test with HSkMC and with HepG2 was “inactive” in each case. For the same compound, the growth inhibition call with S. aureus RN4220 is “inactive”.
Regarding `Cc1ccc(S(=O)(=O)N(C)C[C@H]2OCCCC[C@H](C)Oc3ccc(NC(=O)CCCCCC(=O)Nc4ccccc4N)cc3C(=O)N([C@@H](C)CO)C[C@@H]2C)cc1`, the cytotoxicity call in the test on HSkMC and in the test on HepG2 was “inactive” each time. Also, in the test on S. aureus RN4220, the growth inhibition call is “inactive”.
As for `COc1ccc([C@@H]([C@H](Cc2ccccc2)OC(C)=O)N2C[C@@H](NC(=O)C(Cl)(Cl)Cl)[C@@H]3[C@H]([C@@H]2Cc2ccccc2)N(C)O[C@H]3c2ccccc2)cc1`, the cytotoxicity call in the test with HSkMC and with HepG2 was “inactive” throughout. The growth inhibition call with S. aureus RN4220 is “inactive”.
Turning to `CCc1nc2ccc(C(=O)Nc3ccc(OC)c(OC)c3)cn2c1N(CC)Cc1ccc(OC)c(OC)c1`, the cytotoxicity call in the test with HSkMC and in the test on HepG2 was “inactive” throughout. Moreover, the growth inhibition call with S. aureus RN4220 is “inactive”.
With `COc1ccc(NC(=O)Nc2ccc3c(c2)C(=O)N([C@@H](C)CO)C[C@H](C)[C@H](CN(C)S(=O)(=O)c2ccc(F)cc2)OCCCC[C@@H](C)O3)cc1`, the cytotoxicity call in the test on HSkMC and with HepG2 was “inactive” each time. Also, the growth inhibition call in the test with S. aureus RN4220 is “inactive”.
Consider `COC(=O)c1cn(C)cn1`, for which the cytotoxicity call with HSkMC and in the test on HepG2 was “inactive” each time. In the test with S. aureus RN4220, the growth inhibition call is “inactive”.
`O=C(C[C@@H]1C=C[C@@H](NC(=O)CN2CCOCC2)[C@@H](CO)O1)NCc1cccc(F)c1`: the cytotoxicity call in the test on HSkMC and in the test on HepG2 was “inactive” each time. Moreover, in the test on S. aureus RN4220, the growth inhibition call is “inactive”.
As for `CO[C@H]1CN(C)C(=O)c2ccc(NC(=O)c3ccccc3)cc2OC[C@@H](C)N(C(=O)CN(C)C)C[C@@H]1C`, the cytotoxicity call in the test with HSkMC and in the test on HepG2 was “inactive” in each case. For the same compound, the growth inhibition call in the test with S. aureus RN4220 was “inactive”.
On to `CC(Oc1c(Cl)cccc1Cl)C1=NCCN1.Cl` (centres undefined), for which the cytotoxicity call in the test with HSkMC and in the test with HepG2 was “inactive” throughout. Further, in the test with S. aureus RN4220, the growth inhibition call is “inactive”.
Regarding `COc1oc(C(=O)NC2CCCCC2)c(-c2ccc(Cl)cc2)c1S(=O)(=O)c1ccc(Cl)cc1`, the cytotoxicity call in the test on HSkMC and in the test with HepG2 was “inactive” throughout. Further, in the test with S. aureus RN4220, the growth inhibition call is “inactive”.
For `Cc1ccc(S(=O)(=O)Nc2cccc3c2O[C@H](CN(C)Cc2ccc(-c4ccccc4)cc2)[C@@H](C)CN([C@@H](C)CO)C3=O)cc1`, the cytotoxicity call in the test on HSkMC and in the test with HepG2 was “inactive” in each case. Also, in the test with S. aureus RN4220, the growth inhibition call is “inactive”.
Take `COc1cc(OC)nc(N)n1`: the cytotoxicity call in the test on HSkMC (human skeletal muscle cells) and in the test with HepG2 was “inactive” throughout. The growth inhibition call in the test with S. aureus RN4220 is “inactive”.
For the compound `C[C@@H]1CCCCO[C@H](CN(C)Cc2ccccc2)[C@@H](C)CN([C@@H](C)CO)C(=O)c2cc(NC(=O)Nc3ccccc3)ccc2O1`, the cytotoxicity call in the test with HSkMC and with HepG2 was “inactive” in each case. For the same compound, in the test with S. aureus RN4220, the growth inhibition call is “inactive”.
`C[C@@H]1CCCCO[C@@H](CN(C)C(=O)C2CCCCC2)[C@@H](C)CN([C@@H](C)CO)C(=O)c2cc(NC(=O)C3CCCCC3)ccc2O1`: the cytotoxicity call with HSkMC and in the test on HepG2 was “inactive” each time. Besides, the growth inhibition call in the test on S. aureus RN4220 was “inactive”.
